# Measurements from paper PMC4336329 (PLoS ONE, 2015).
# The whole screen tested about 310,000 compounds, of which about 14,000 (4.5%) showed an effect of 50% or more. The effect is printed as a negative number. Some of the results follow.
# Biological target: human ether-à-go-go-related gene (hERG) potassium channel (human, UniProt Q12809)
# Assay: primary screen, population patch clamp on CHO cells stably expressing hERG
# 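Also: peak tail current of the secondary pulse compared with the same well before compound.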
# Chain of human ether-à-go-go-related gene (hERG) potassium channel (Q12809 whole entry, looked up): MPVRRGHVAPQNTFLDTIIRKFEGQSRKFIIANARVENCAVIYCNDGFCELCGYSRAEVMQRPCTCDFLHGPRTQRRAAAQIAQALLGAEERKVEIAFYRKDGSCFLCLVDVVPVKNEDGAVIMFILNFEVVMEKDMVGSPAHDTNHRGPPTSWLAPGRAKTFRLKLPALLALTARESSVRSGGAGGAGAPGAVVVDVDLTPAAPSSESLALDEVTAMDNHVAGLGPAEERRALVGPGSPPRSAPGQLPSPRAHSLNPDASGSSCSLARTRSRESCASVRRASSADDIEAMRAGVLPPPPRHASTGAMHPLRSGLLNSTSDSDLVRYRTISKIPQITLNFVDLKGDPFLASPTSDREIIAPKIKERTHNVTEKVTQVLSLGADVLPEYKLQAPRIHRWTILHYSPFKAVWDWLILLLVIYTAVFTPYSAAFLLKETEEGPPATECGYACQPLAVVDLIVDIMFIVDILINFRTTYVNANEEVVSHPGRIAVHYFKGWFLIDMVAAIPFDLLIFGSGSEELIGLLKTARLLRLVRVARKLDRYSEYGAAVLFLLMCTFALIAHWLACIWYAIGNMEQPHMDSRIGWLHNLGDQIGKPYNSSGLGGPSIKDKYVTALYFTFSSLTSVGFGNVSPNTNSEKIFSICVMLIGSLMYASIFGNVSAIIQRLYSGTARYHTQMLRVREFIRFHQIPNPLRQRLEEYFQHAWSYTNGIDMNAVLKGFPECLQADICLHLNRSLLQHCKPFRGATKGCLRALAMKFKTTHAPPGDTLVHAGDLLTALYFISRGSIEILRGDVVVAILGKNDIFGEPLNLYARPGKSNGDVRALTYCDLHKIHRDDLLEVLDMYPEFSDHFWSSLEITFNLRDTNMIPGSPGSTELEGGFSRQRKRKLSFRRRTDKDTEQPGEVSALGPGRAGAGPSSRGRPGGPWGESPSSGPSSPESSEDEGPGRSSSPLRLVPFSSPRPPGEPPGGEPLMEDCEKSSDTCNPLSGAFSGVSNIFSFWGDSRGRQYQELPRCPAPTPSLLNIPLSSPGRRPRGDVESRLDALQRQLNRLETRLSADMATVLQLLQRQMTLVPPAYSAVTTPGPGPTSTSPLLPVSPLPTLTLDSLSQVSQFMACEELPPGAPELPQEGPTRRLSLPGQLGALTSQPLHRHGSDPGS
row,Compound,"hERG current change (%, negative = inhibition) at 10uM"
1,Cc1nn(C)c(C)c1S(=O)(=O)NCCc1ccc(Cl)cc1,-3.38%
2,O=C(O)C1C2C=CC3(CN(C/C=C/c4ccccc4)C(=O)C13)O2 (centres unmarked),12.2%
3,Cc1ccc(-n2c(=O)c(C#N)cc3c(=O)n4ccccc4nc32)cc1C,-2.4%
4,CC/C(=N/N=C(/CC)c1ccc(O)cc1)c1ccc(O)cc1,-2.21%
5,CC(=O)N1CCOc2ccc(S(=O)(=O)N3CCC(C(=O)NCc4ccc(F)cc4)CC3)cc21,4.09%
6,COc1ccc(NC(=S)Nn2cnnc2)cc1OC,30.3%
7,CC(Sc1ccc(S(=O)(=O)N2CCOCC2)cn1)C(=O)Nc1ccc(Cl)cc1Cl (centres unmarked),-56.1%
8,Cc1onc(-c2ccccc2)c1C(=O)Nc1ccnn1C1CCCCC1,-12.7%
9,CC(=O)Nc1c(C(=O)c2ccc(F)cc2)oc2ccccc12,1.61%
10,CCCCOCCCNC(=O)N[C@H](C(=O)OC)C(C)C,10.7%
11,CCc1ccccc1N=C1SCC(=O)N1C,2.46%
12,CC1CCN(S(=O)(=O)c2ccc3ccccc3c2)CC1,-21.9%
13,Cc1nc(SCC(=O)NC2CCCCC2C)c(C#N)c(C)c1C (centres unmarked),-7.03%
14,O=C1NCCC/C1=N/Nc1cc(F)ccc1F,-9.56%
15,CCN(CC)CCN(Cc1cc2cc3c(cc2[nH]c1=O)OCO3)C(=S)NCC(C)C,-55.1%
16,CCOc1ccc(N(CC(=O)NC2CCCCC2)C(=O)CCC(=O)Nc2nc(C)cs2)cc1,-50.6%
17,Cc1ccc(S(=O)(=O)N2CCN(S(=O)(=O)N3CCCCC3)CC2)cc1,11.7%
18,CCC1CCCCN1C(=S)NC(=O)c1cc(S(=O)(=O)N2CCOCC2)ccc1C (centres unmarked),2.98%
19,CCOc1ccccc1NC(=O)CCn1c(=O)oc2ccccc21,-12.9%
20,COc1ccc(NC(=O)c2ccc(-c3ccc([N+](=O)[O-])cc3)o2)cc1,-33.1%
21,CCNC(=O)NC(=O)COc1ccccc1C#N,16.4%
22,COc1ccc(CCNC(=O)c2cc(-c3ccccc3O)n[nH]2)cc1OC,0.414%
23,N#CC1(C#N)COC23CCCCC2C1(C#N)C(=N)O3 (centres unmarked),-0.33%

row,Compound,"hERG current change (%, negative = inhibition) at 10uM"
1,c1ccc(SCCc2ccncc2)cc1,7.49%
2,CS(=O)(=O)NCCSCc1ccc(Cl)cc1,-6.98%
3,CCC(C)[C@H]1CNC(=S)N1CCC12CC3CC(CC(C3)C1)C2 (some centres unmarked),4.73%
4,COC(=O)CCCC(=O)NC1CCCN(C2Cc3ccccc3C2)C1 (centres unmarked),-10.6%
5,Fc1ccc(-c2nnc(SCc3ncc(-c4ccccc4)o3)n2CC2CCCO2)cc1 (centres unmarked),-35.3%
6,Cc1ccc(OCC(=O)N/N=C/c2ccncc2)cc1,-17.4%
7,O=C(NC(=O)c1cc(OCC(F)(F)F)ccc1OCC(F)(F)F)Nc1ccccc1,7.54%
8,CNC(=O)c1c(NC(=O)c2ccc(N3C(=O)CCC3=O)cc2)sc2c1CCCC2,-13.3%
9,CC1Cc2ccccc2N1S(=O)(=O)c1cccc(C(=O)NCc2ccccn2)c1 (centres unmarked),-67.6%
10,CCN(CC(=O)Nc1cc(Cl)ccc1C)C(=O)CCc1nc2ccccc2c(=O)[nH]1,-67.3%
11,CCc1nonc1NC(=O)c1oc2cc(Br)ccc2c1C,20.4%
12,COc1ccc(S(=O)(=O)N2CCN(C(=O)c3ccc4ccccc4n3)CC2)cc1,-21%
13,CCN(CC)C(=O)Cn1cc(C(=O)C(=O)N2CCc3ccccc32)c2ccccc21,24.3%
14,COc1ccc(-c2[nH]ncc2CN(C)CCCN2CCOCC2)cc1F,-2.52%
15,O=S(=O)(c1ccc2ccccc2c1)N1CCN(C(=S)Nc2ccc(F)c(Cl)c2)CC1,-5.04%
16,O=C(Nc1nc(-c2cccs2)c(-c2cccs2)s1)C1(c2ccccc2)CC1,4.96%
17,N/C(=N\OC(=O)COc1ccccc1)c1cccnc1,-3.92%
18,O=C(Nc1cccc(C(F)(F)F)c1)C1CCN(S(=O)(=O)c2ccc(N3CCCC3=O)cc2)CC1,-13.5%
19,CC1(C)NC(=O)N(CCCOc2ccc(Br)cc2Cl)C1=O,-49.5%
20,COc1cc(C=O)ccc1OCCOc1ccccc1[N+](=O)[O-],-6.53%
21,COc1ccc(C(=O)N/C(=C\c2cccs2)C(=O)N2CCN(C)CC2)cc1OC,-56.4%
22,COc1ccc(Nc2nnc(-c3ccncc3)s2)cc1Cl,21%
23,COC(=O)Cn1cnc2c(nnn2-c2cccc(OC)c2)c1=O,11.4%

row,Compound,"hERG current change (%, negative = inhibition) at 10uM"
1,CN1CCN(c2ccccc2NC(=O)Cn2ncc3c([nH]c4ccccc43)c2=O)CC1,-38.8%
2,COCCOc1cnn(-c2cc(Oc3ccc(C)cc3)ncn2)c(=O)c1Cl,-5.86%
3,Cc1nonc1OCCNc1ccc([N+](=O)[O-])cc1,-40.7%
4,CN(CC(=O)Nc1ccc(N2CCOCC2)cc1)C(=O)CSc1ccc(Br)cc1,13.3%
5,CCCNc1c(N)c(=O)oc2ccccc12,-13.6%
6,Nc1nnc(SCC(=O)OCC(=O)c2ccccc2)s1,15.4%
7,CCOC(=O)c1ccc(NC(=O)c2ccc(C)c(S(=O)(=O)N3CCOCC3)c2)cc1,-33.4%
8,CCN(CC)CCNC(=O)c1ccc(NC(=O)c2ccc(F)cc2)cc1,-43.6%
9,Brc1cc2c(cc1-c1nc3ccccc3s1)OCO2,24.4%
10,Cc1ccc(S(=O)(=O)NCC2CCCO2)cc1 (centres unmarked),7.63%
11,C1COCCO1.Cc1cc(C)c2nc(Nc3nc(-c4ccccc4)cc(=O)[nH]3)nc(C)c2c1,4.27%
12,COc1ccc(CCC(=O)Nc2cccc(Cl)c2)cc1,-1.25%
13,Cc1cc(NC(=O)CCC(=O)N(c2ccccc2)C(C(=O)NC2CCCC2)c2ccccc2F)no1 (centres unmarked),-7.04%
14,Cl.O=C(OCCN1CCOCC1)c1cccc(F)c1,10.8%
15,CCCCNC(=O)N1CCN(C(=O)C2CCCO2)CC1 (centres unmarked),9.68%
16,C=CCNC(=O)N1c2ccccc2Sc2ccccc21,-18.8%
17,COc1ccc(OC)c(CN2CCC(C(=O)N3CCOCC3)CC2)c1.O=C(O)C(=O)O,19.9%
18,CCCCN1C(=O)C(CC(=O)NCC)SC1=Nc1ccccc1 (centres unmarked),-2.34%
19,Cn1cc(C(=O)c2ccc(Cl)cc2Cl)cc1C(=O)NN,17.4%
20,COc1ccc(NC(=O)c2ccco2)c([N+](=O)[O-])c1,-11.4%
21,C=CCNC(=S)N1CCC(C(=O)c2ccc3c(c2)OCCO3)CC1,-8.17%
22,COC(=O)[C@@H]1CC[C@H](C)[C@@H](c2ccc(C)cc2)N1C(=O)c1ccc(/C=N/O[C@@H](C)c2cn([C@H](CO)Cc3ccccc3)nn2)cc1,5.85%
23,CCCOc1ccc(/C=C/C(=O)Nc2ccc([N+](=O)[O-])cc2C)cc1OC,-0.0933%

row,Compound,"hERG current change (%, negative = inhibition) at 10uM"
1,O=C(NCc1ccccc1)/C(=C\c1ccc([N+](=O)[O-])cc1)NC(=O)c1ccco1,-60.9%
2,COc1ccc2[nH]c(=S)cc(C)c2c1,21.2%
3,Clc1ccc(-c2nc(NCCN3CCOCC3)c3ccccc3n2)cc1,-15.6%
4,Cc1ccc(S(=O)(=O)Oc2ccccc2/C=N/NC(=O)c2c(Cl)cnn2C)cc1,-7.58%
5,COc1ccccc1C(=O)N1CCN(C2CCN(Cc3ccccc3)CC2)CC1,-23.2%
6,COc1ccc(-c2csc(NC(=O)c3ccc(S(=O)(=O)N4CCc5ccccc5C4)cc3)n2)c(OC)c1,23%
7,CSc1ncc(/C=C2/C(=O)NC(=O)N(c3ccc(C)cc3)C2=O)cn1,4.71%
8,O=C(c1ccc(Cl)cc1)c1ccc(OCC(O)CN2CCOCC2)cc1 (centres unmarked),-19.7%
9,O=C(Nc1nnc(CCN2CCCCC2)s1)c1ccccc1Cl,13.3%
10,COc1ccc(N2CCN(CC(=O)N3CCC(C)CC3)CC2)cc1,-5.05%
11,COc1cccc(Cl)c1NC(=O)N1CCN(c2ccnc3cc(Cl)ccc23)CC1,-44.1%
12,Cc1cc(C)c(Cn2cnc(-c3ccc([N+](=O)[O-])cc3)c2)c(C)c1,0.488%
13,S=C1NCCOCCOCCNC(=S)N2CCOCCOCCN1CCOCCOCC2,5.22%
14,COc1ccc2c(C)c(Cc3ccccc3)c(=O)oc2c1OC,7.31%
15,CCc1ccc(OCCOCCN2CCN(C)CC2)cc1.O=C(O)C(=O)O,4.8%
16,CC(C)OCCCNC(=O)C(NS(=O)(=O)c1ccc2c(c1)c(=O)n(C)c(=O)n2C)c1ccccc1 (centres unmarked),24.7%
17,CCOc1cccc(C2C(C#N)=C(N)Oc3cc(C)[nH]c(=O)c32)c1OCC (centres unmarked),-1.21%
18,Cc1ccc(-c2csc(NC(=O)N3CCOCC3)n2)cc1,-14.3%
19,COc1ccc(C(=O)OCC(=O)Nc2cc(C)on2)c(OC)c1OC,15.9%
20,CSCCC1NC2(C(=O)Nc3ccc(Cl)cc32)[C@@H]2C(=O)N(C3CCCC3)C(=O)[C@H]12 (some centres unmarked),-8.3%
